{
  "source": "the supplement of paper PMC8728848",
  "biological_target": "Neu5Gc(b2-6)Gal(b1-4)GlcNAc",
  "assay": "glycan array binding signal (z-score within array); higher = stronger binding",
  "conditions": "glycan notation: IUPAC condensed, linker removed",
  "method_in_brief": "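Arrays were curated from the Consortium for Functional Glycomics database, 3228 in total, and kept only where the protein sequence was available. Binding is expressed as a within-array Z-score. This score was averaged across arrays of the same protein sequence at different concentrations or buffers and across linkers, and negative values can be read as non-binding.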",
  "note": "The other results are listed elsewhere or left out.",
  "data": [
    {"binder": "Pwp2 (Candida glabrata) (protein) MGSSHHHHHHSSGLVPRGSHMASKNPVELNNVCTFPNDYGRIPGFTVLVGRLGLLISASDYKELLRYPGAFLIATQDTMTTSPNFELTGFPFFTGLYGLTVFPLDLLVELRGYFVPPNSGQYTFTLSDSDDAAIIFLGNPSAFPCGDLQNWPKPSEEDITVTDHLFPSRTLYLIEGVAYPMRIAYYNGIGAGRLNAAFIDPSGTRHTNWEGYIWQYDPCSTCTYS", "values": [
      {"measurement": "glycan array binding signal (z-score)", "value": 0.257}
    ]}
  ]
}
